# Hit rate of the full screen: of about 45,000 compounds, about 200 (0.44%) were called active. Roughly 7% stayed inconclusive and do not appear here. The call rests on the fitted dose curve; in most records, active means well fitted activation curve with a large enough effect; inconclusive means small, poorly fitted or top-dose-only effect; inactive means no such curve, though single readings can be large or run the other way. The list shows a part of the results.
# Assay: qHTS of TDP-43 Inhibitors: NCGC Sytravon Library Screen; further: 0% is about no effect; nearly all actives have a fitted effect of over 55% in size
# Details: yeast TDP-43 toxicity rescue, BacTiter-Glo growth, 24 h; series mostly up to 46.1 µM; growth rescue (activation): at the top concentration
# In short: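 TDP-43-expressing yeast, pregrown in raffinose, seeded at OD600 0.02 in galactose medium with compound for 24 hr at 30 deg C. Growth read by BacTiter-Glo luminescence, so rescue of toxicity appears as activation.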
row,SMILES,growth rescue (activation)
1,Cc1ccc(NC(=O)CN2C(=O)N/C(=C\c3cccnc3)C2=O)cc1,inactive: 12.8%
2,Nc1nc2cc(S(=O)(=O)N3CCOCC3)ccc2o1,inactive: -7.64%
3,COc1cccc2cc(C(C)N(CCCN3CCOCC3)C(=O)Nc3ccccc3)oc12 (stereo not drawn),inactive: 8.26%
4,CC(NC(=O)COC(=O)Cc1ccsc1)c1ccccc1 (stereo not drawn),inactive: 23.2%
5,N#Cc1ccc(COC(=O)CN2C(=O)NC3(CCCC3)C2=O)cc1,inactive: -3.56%
6,CC(=O)c1ccc(OCCOc2ccc(Cl)c3cccnc23)cc1,inactive: -1.51%
7,CCCCN(CC)CCCNC(=O)c1cc2cc3ccc(C)cc3nc2o1,inactive: -2.1%
8,Nc1nonc1-n1nnc(C(=O)N/N=C/c2ccc(Cl)cc2Cl)c1CN1CCCCC1,inactive: -4.49%
9,CN1CCN(C(=O)CCN2C(=O)/C(=C/c3ccccc3Cl)SC2=S)CC1,inactive: 7.4%
10,O=C1N/C(=N/S(=O)(=O)c2ccccc2)S/C1=C/c1cccnc1,inactive: 7.47%
11,CC(C)CNC(=O)CSc1nnc(-c2ccc(Cl)cc2)n1N,inactive: -5.41%
12,CCOC(=O)C1(C)CCCN1C(=O)c1cncc(Br)c1 (stereo not drawn),inactive: 6.74%
13,COc1ccc(-n2ncc3c(N4CCN(Cc5ccccc5)CC4)ncnc32)cc1,inactive: 3.16%
14,COC(=O)CSc1nc(NCc2ccccc2)nc(N(C)C)n1,inactive: 7.97%
15,CCOc1ccc(C(=O)NCCC2=CCCCC2)cc1OCC,inactive: 13.7%
16,COc1ccc(CN2CCNC(=O)C2CC(=O)NCc2cn3ccc(C)cc3n2)c(OC)c1 (stereo not drawn),inactive: -14.1%
17,CCOc1ccc(NC(=S)N(C)C)cc1,inactive: 2.07%
18,COC(=O)c1cc(NS(=O)(=O)c2ccc(NC(C)=O)cc2)ccc1Cl,inactive: 24.4%
19,COc1ccc(CN2CCNC(=O)C2CC(=O)NC2CCOCC2)c(F)c1 (stereo not drawn),inactive: 8.49%
20,COc1ccc2c(c1)NC(c1cc(Cl)cc(Cl)c1O)c1cccn1-2 (stereo not drawn),inactive: 3.79%
21,Cc1cc(=O)c(C(=O)Nc2ccc(N3CCOCC3)cc2N2CCOCC2)nn1-c1ccccc1Cl,inactive: -2.17%
22,O=C(NNC(=S)Nc1ccc(Cl)cc1Cl)C1CC1,inactive: 15.3%

row,SMILES,growth rescue (activation)
1,Cc1ccc(OCC(=O)N/N=C2/SCC(=O)N2Cc2ccco2)cc1,inactive: 2.64%
2,CC(=O)NCCC(=O)Nc1nc2ccc(Oc3ccccc3)cc2s1,inactive: -4.1%
3,Clc1ccc(C2Nc3cccc4cccc(c34)N2)c(Cl)c1,inactive: 25.7%
4,COc1ccc(CCN2C(=O)N(c3ccc(OC)cc3)C(=O)C2CC(=O)Nc2ccc(OC)cc2)cc1 (stereo not drawn),inactive: 28.1%
5,Cc1ccc(S(=O)(=O)NCC(=O)Nc2ccc3c(c2)OCO3)cc1,inactive: 5.13%
6,N#Cc1ccc(CN2CCN(C(=O)CC(NC(=O)c3ccccc3)c3ccccc3)CC2)cc1 (stereo not drawn),inactive: 1.49%
7,CCn1c(CC(=O)Nc2ccc(F)cc2)nnc1SCC(=O)N1CCOCC1,inactive: 9.82%
8,Cc1ccc(/C=C2\SC(=S)N(CCCC(=O)Nc3nccs3)C2=O)cc1,inactive: 6.99%
9,CCCC(c1nnnn1CC1CCCO1)N1CCN(c2ccccc2)CC1 (stereo not drawn),inactive: 11.8%
10,CN1CCN(NC(=S)Nc2ccc(Oc3ccccc3)cc2)CC1,inactive: -3.43%
11,CCOC(=O)c1sc(/N=C/c2ccc(O)cc2O)cc1C,inactive: 0.449%
12,Cc1ccc(NC(=O)c2ccc(CN3CCc4ccccc4C3)cc2)cc1,inactive: 20.5%
13,O=C(NCc1cccnc1)c1cc(Cl)ccc1[N+](=O)[O-],inactive: 13.9%
14,COc1ccc(CCNC(=O)C/C(C)=N/NC(=O)C2CCCCC2)cc1OC,inactive: 1.1%
15,CN1CCC(=NNC(=O)CN(c2ccc([N+](=O)[O-])cc2)S(=O)(=O)c2ccccc2)CC1,inactive: 10.3%
16,CC(=O)Nc1sc(C)c(C)c1C(=O)OCC(=O)N(CC(C)C)C1CCS(=O)(=O)C1 (stereo not drawn),inactive: -5.84%
17,CCOC(=O)CC1C(=O)NCCN1S(=O)(=O)c1ccc(C)cc1 (stereo not drawn),inactive: 0.0686%
18,CC/C(C)=N/NS(=O)(=O)c1ccc(C)c([N+](=O)[O-])c1,inactive: -0.617%
19,CCOC(=O)c1ccc(NNC(C)=O)c([N+](=O)[O-])c1,inactive: 15.1%
20,Cc1ccc(-n2ncc(C(=O)Nc3ccc(Cl)cc3)c2C2CCNCC2)cc1C,inactive: 4.04%
21,Cc1onc(-c2ccccc2)c1C(=O)OCC(=O)Nc1cc(S(=O)(=O)N2CCOCC2)ccc1Cl,inactive: 4.67%
22,CC(=O)Nc1ccc2c(c1)CN(c1cc(C)ccc1C)CO2,inactive: -1.88%

row,SMILES,growth rescue (activation)
1,Cc1ccc(S(=O)(=O)NCC(c2ccccc2)N2CCCCC2)cc1 (stereo not drawn),inactive: 25.2%
2,COc1ccc(/C=N/NC(=O)c2ccc(CN3C(=O)c4cccc5cccc3c45)cc2)cc1O,inactive: 17.1%
3,O=C(NCc1ccc(Cl)cc1)C1CCN(S(=O)(=O)c2ccc(F)cc2)CC1,inactive: 3.19%
4,CCN1CCN(c2ncnc3scc(-c4ccc(C)c(C)c4)c23)CC1,inactive: 1.16%
5,C=CCn1c(N)cc(=O)nc1SCC(=O)Nc1ccc(C(=O)OCC)cc1,inactive: 6.68%
6,Cc1ccc(C(=O)N/C(=C\c2cccnc2)C(=O)N2CCCC2)cc1,inactive: -40.6%
7,CCN(CC1CCCO1)C(=O)c1cc(COc2ccc(F)cc2F)on1 (stereo not drawn),inactive: 20.9%
8,COc1cccc(/C=N\NC(C)=O)c1OC/C=C/c1ccccc1,inactive: -0.591%
9,CCCn1c(N)c(C(=O)CSc2nnc(C3CC3)n2C2CC2)c(=O)[nH]c1=O,inactive: 10.1%
10,COc1ccccc1C(=O)OCC(=O)NC(=O)NCc1ccccc1,inactive: 5.86%
11,Cc1nc2cc(C(=O)NCc3cccnc3)ccc2n1-c1ccc(F)cc1F,inactive: 8.94%
12,CCCCOc1ccc(C(=O)Nc2sc3c(c2C(=O)OCC)CCCCC3)cc1,inactive: 1%
13,Cc1nc(C)n(C(C)CNS(=O)(=O)c2ccc(Cl)cc2)n1 (stereo not drawn),inactive: 7.97%
14,Cc1ccc(NC(=O)CC2(CC(=O)O)CCCC2)c(C)c1,inactive: -3.25%
15,O=C(NCc1ccco1)/C(=C/c1ccc(Cl)cc1)NC(=O)c1ccco1,inactive: -1.31%
16,CCOc1ccccc1CNCc1ccc(C(=O)O)cc1,inactive: 2.77%
17,C/C(=N\NS(=O)(=O)c1ccccc1)c1ccc2c(c1)OCO2,inactive: 13.5%
18,COc1ccc(C(=O)N2CCN(CCNC(=O)C(=O)Nc3ccc(Br)cc3)CC2)cc1,inactive: 27.7%
19,CC(C)NCC(O)COC1C2CC3CC(C2)CC1C3 (stereo not drawn),inactive: 3.48%
20,COC(=O)c1ccccc1NS(=O)(=O)c1ccc(Cl)nc1,inactive: 1.64%
21,Cc1cc(C(=O)CCC(=O)N2CCN(S(=O)(=O)c3cccs3)CC2)c(C)s1,inactive: 26.5%
22,O=C(OCC(=O)N(C1CCCCC1)C1CCCCC1)c1ccc(O)cc1,inactive: 9.99%

row,SMILES,growth rescue (activation)
1,CCOC(CNC(=O)c1nnc(Cc2cc(OC)c(OC)c(OC)c2)o1)OCC,inactive: 12.6%
2,COc1cccc(CN2CCC(C(=O)N3CCN(c4ccccc4F)CC3)CC2)c1OC,inactive: -16.1%
3,COc1ccc(C2Nc3ccccc3C(=O)N2NS(=O)(=O)c2ccccc2)cc1OC (stereo not drawn),inactive: -0.889%
4,CC1CCN(CC(=O)Nc2ccccc2C(=O)c2ccccc2)CC1,inactive: -0.865%
5,CCOc1ccc(CN2CCN(Cc3cccn3-c3nccs3)CC2CCO)cc1 (stereo not drawn),inactive: -5.79%
6,NC(=O)COC(=O)c1ccccc1OCc1ccccc1,inactive: 4.68%
7,COc1ccc(CCNC(=O)C(C)OC(=O)c2cccs2)cc1OC (stereo not drawn),inactive: -4.28%
8,Cc1ccc(-c2nnnn2C2C/C(=N\NC(N)=S)C3OCC2O3)cc1 (stereo not drawn),inactive: 10.2%
9,O=C(O)C1CCCCC1C(=O)NCCCN1CCCC1=O (stereo not drawn),inactive: -7.39%
10,O=C(Nc1nnc(-c2cccc(F)c2)s1)Nc1ccccc1F,inactive: 3.25%
11,Cc1cccc(OCC(=O)Nc2ccc(C(=O)O)cc2NC(=O)COc2cccc(C)c2)c1,inactive: -12.6%
12,COCCN(C(=S)Nc1c(C)cc(C)cc1C)C(C)c1cccnc1 (stereo not drawn),inactive: 12.1%
13,CC1=C(C(=O)N2CCN(c3cc(C)ccc3C)CC2)C2(CCC(C)CC2)OC1=O (stereo not drawn),inactive: 3.98%
14,O=C1CC(C(=O)Nc2ccc(F)cc2)S/C(=N\N=C\c2ccco2)N1 (stereo not drawn),inactive: 15.7%
15,O=C(NCc1ccccc1)Nc1nnc([C@@H]2C[C@H](O)[C@@H](CO)O2)s1,inactive: -13.6%
16,COc1ccc(-c2noc(CNC(=O)c3ccc4c(c3)OCO4)n2)cc1OC,inactive: -14.9%
17,CC(OC(=O)c1ccccc1)C(=O)NCCC1=CCCCC1 (stereo not drawn),inactive: 28.4%
18,CCOP(=O)(OCC)c1nc(-c2ccc(Cl)cc2)oc1NCc1ccccc1,inactive: 0.605%
19,COc1cc(/C=N/NC(=O)COc2ccc(-n3cnnn3)cc2)ccc1OCC(N)=O,inactive: -3.13%
20,CCOC(=O)N1CCN(C(=O)CCC(=O)c2ccc(OCC)cc2)CC1,inactive: 15.8%
21,Cc1cccc(NC(=O)c2cc(NC(=O)C3CCCCC3C(=O)O)ccc2N2CCOCC2)c1 (stereo not drawn),inactive: 6.11%
22,CCc1ccc(C(=O)CN2C(=O)C(C)N(c3ccc(C)cc3)C2=O)cc1 (stereo not drawn),inactive: 11%

row,SMILES,growth rescue (activation)
1,CCC(=O)c1ccc(OCc2ccc(C(=O)OC)cc2)cc1,inactive: 16%
2,Cc1ccc(S(=O)(=O)NC(=O)C2(C)CCN2C(=O)C2CC2)cc1 (stereo not drawn),inactive: 6.73%
3,COc1ccc(S(=O)(=O)Nc2cc(C)on2)cc1,inactive: 32.1%
4,CCc1nc2c(OCCOc3ccc(F)cc3)cccn2c1N(C)C(=O)C(C)C,inactive: 12.7%
5,O=C(NC(N1CCOCC1)C(Cl)(Cl)Cl)c1ccccc1Cl (stereo not drawn),inactive: -3.6%
6,Cc1ccc(C(=O)COC(=O)CNC(=O)CN2C(=O)c3ccccc3C2=O)cc1,inactive: 10.7%
7,COc1cc(/C=N/NC(=O)c2cc(C)oc2C)ccc1O,inactive: 29.7%
8,O=C(c1cccs1)c1cn(CCOc2ccccc2F)c2ccccc12,inactive: 17.8%
9,COc1ccc(N2C(=O)C3CCCN3C2=S)cc1 (stereo not drawn),inactive: -16.2%
10,O=C(C1CCN(S(=O)(=O)c2ccccc2)CC1)N1CCN(Cc2ccc3c(c2)OCO3)CC1,inactive: 13%
11,CC(=C/c1ccccc1)/C=N/N1CCN(Cc2ccc(C)cc2)CC1,inactive: 9.44%
12,Cc1ccsc1C(=O)C1CCCN(Cc2cn(C)nc2-c2ccccc2)C1 (stereo not drawn),inactive: 0.601%
13,O=C(NCc1ccc(Cl)cc1)c1ccc(CSc2nc3ccncc3[nH]2)cc1,inactive: 13.1%
14,CC1CCCCN1S(=O)(=O)c1ccc(N(C(=O)c2cnccn2)C(C(=O)NC2CCCCC2)c2cccs2)cc1 (stereo not drawn),inactive: 14.2%
15,COc1ccc(O)c(/C=N/N2CCCCC2)c1,inactive: -9.45%
16,COc1ccccc1NC(=O)Cn1c(CCC(=O)O)ccc1-c1ccc(C)cc1,inactive: 14.3%
17,Cc1c(NC(=O)c2ccc(Cl)c(S(=O)(=O)N3CCCCC3)c2)c(=O)n(-c2ccccc2)n1C,inactive: 0.675%
18,Cc1cc(S(=O)(=O)NC2CCCCC2)ccc1OCC(=O)NCC1CCCO1 (stereo not drawn),inactive: -3.13%
19,Cn1ncc(Cl)c1C(=O)NCc1ccco1,inactive: 9.37%
20,O=C(CCCc1nc2ccccc2s1)Nc1ccccc1,inactive: 29.5%

# From PubChem BioAssay AID1347073 (National Center for Advancing Translational Sciences (NCATS), 2019)
